We go through 24 sequences from the supplement of paper PMC11417369.

± gives the standard deviation of the averaged measurements. This is one part of the list.

The assay concerns PfAP2-I AP2 domain 3 (GST-tagged). In words: gcPBM binding intensity (ln(normalized median fluorescence intensity)); higher = stronger DNA binding. The essentials:
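The binding buffer was 1× PBS containing 1% milk, 0.2 mg/ml BSA, 0.5% salmon testes DNA and 0.03% Triton X-100. In it, GST-tagged P. falciparum DNA-binding domains expressed in E. coli were applied for 1 h to an Agilent 4 × 180k array of primer-extended double-stranded 36-bp intergenic genomic probes plus negative controls. Binding intensity, read with Alexa488 anti-GST antibody and a 488 nm scan, is the highest Masliner-normalised natural-log median intensity across replicate spots of either probe orientation.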
“TTATTTTTTAGTAGTACACACTTTTTGTACCTTTTA [CACACA_site4503]”: the “gcPBM binding intensity (ln)” value is 8.29 ± 0.4. With “GACACCCATAAATATACACACGCACAACACAAAATA [CACACA_site8944]” the figure was 8.35 ± 0.32. With “CTAAAAGAACATGTGTGTACTTATGTTCTCTTTTTT [XGTACX_site5983]”, the “gcPBM binding intensity (ln)” value is 7.46 ± 0.54. As for “AATAAAAAAAAAAAAAAAAAAAAAAAGACACTAAAA [CACACA_negctrl_site1075]”, the “gcPBM binding intensity (ln)” value is 7.44 ± 0.61.

Take “TATAATAAATGGACGGTGCGACATGACCATATGTGT [GTGCAC_site9476]”: the “gcPBM binding intensity (ln)” value was 8.73 ± 0.48. Then “AAAAAGAAGAATAATACACACAAATTATTTTATATA [CACACA_site1919]”, with 7.43 ± 0.61; and “TATTCCAAAAATGTGTGTACATAAATACAATATTAT [XGTACX_site2653]”, with 8.01 ± 0.29; and “TTGTTAATAAAAATATTGGAAAGTTTATAAAATTTT [CACACA_negctrl_site1487]”, with 7.53 ± 0.52.

Take “TTATTTTCTTTTTCTTGTACACACATAATATGGATG [XGTACX_site1481]”: the “gcPBM binding intensity (ln)” value amounted to 7.9 ± 0.67. Consider “ATAATATATATACAAACACACAATTGCGTCCACATT [CACACA_site8515]”, for which the “gcPBM binding intensity (ln)” value is 8.15 ± 0.5. Consider “CATATAATTATTTTCACACATATAACTACATCTATA [CACACA_site5915]”, for which the “gcPBM binding intensity (ln)” value worked out at 7.78 ± 0.41. On to “TAAGATCCTTAAAACGCATGCAGTATTTTTATTTCT [TGCATGCA_site532]”, for which the “gcPBM binding intensity (ln)” value was determined as 7.49 ± 0.84. Consider “TAGCCAAAAGGATATGCACACACACCCACATATATA [CACACA_site8684]”, for which the “gcPBM binding intensity (ln)” value came to 8.59 ± 0.24.

Consider “ATATAAATAAAAAAAAGTACATAATATATAAAAATA [XGTACX_site3065]”, for which the “gcPBM binding intensity (ln)” value was found to be 7.96 ± 0.45. With “CTTTTACGTTTAGGATGTACATTTAAAAAAAAAGAA [XGTACX_site8032]” the figure was 8.13 ± 0.26; with “TTAAGATGCATAAATACATGCAAAGTAAATAATTCT [TGCATGCA_site517]”, 7.84 ± 0.64. As for “AATAAATATTAAATGACAAAAAAAAAAAAAAAAGGG [XGTACX_negctrl_site15]”, the “gcPBM binding intensity (ln)” value was found to be 8.615 ± 0.049. Consider “TATAATCCATAAGAAGCACACACATATATATATATT [CACACA_site8394]”, for which the “gcPBM binding intensity (ln)” value was 7.92 ± 0.38. Turning to “ATTATAAGAATTAAAAGAAACAAAATTTTAATTATA [CACACA_negctrl_site610]”, the “gcPBM binding intensity (ln)” value stood at 7.6 ± 0.4. On to “TTAGCAGGACGTTTGGTGCACGTACTGTTTTTCTTT [GTGCAC_site9856]”, for which the “gcPBM binding intensity (ln)” value is 10.14 ± 0.078. With “TCTTTCTGCTCTTATACACACAAATAAAGATTTTTT [CACACA_site2700]” the figure was 8.29 ± 0.6; with “CATTGACCATTAATTTGTACACAAGGGGAAATGAGG [XGTACX_site1756]”, 8.19 ± 0.45. As to “TATATATATATATATATATATATATATATATATATT [CACACA_negctrl_site1440]”, the “gcPBM binding intensity (ln)” value stood at 9.12 ± 0.85. As to “ATGAAATTTTCATATTGTACTATTAAAAATATATTT [XGTACX_site1989]”, the “gcPBM binding intensity (ln)” value was 7.74 ± 0.43.
